± gives the standard deviation. The full ranking holds about 3,700 sequences; the median of “pre-steady-state target cleavage rate” is about 0.02, and the highest 2% start at about 0.23. Only a part is listed here, and it is no random draw.
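Also: 1 nM active piRISC with 0.1 nM target library at 33 °C single turnover.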

In this test the test system is MILI (PIWIL2) piRISC loaded with Kctd7 piRNA (26 nt). As to the kind of experiment: pre-steady-state target cleavage rate (min^-1); MIWI and MILI are mouse PIWI proteins and EfPiwi is from a freshwater sponge; tags in brackets are library labels; higher = faster piRNA-guided slicing of the target. The settings on record: guide: Kctd7 piRNA 5'p-UGUUAAUCUCUCAGAGAAGGUGACAG; auxiliary factor: 500 nM mouse GTSF1. In a few lines:
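Three pooled Cleave-'n-Seq trials supplied the data, with k3 capped at 0.0001 min^-1. In each, […] transcribed, DNA-blocked target RNA library and 1 nM active affinity-purified piRISC with one synthetic guide reacted in HEPES–potassium acetate buffer at 33 °C for 0–8 or 0–960 min, with or without 500 nM GTSF1 partner protein. Uncleaved targets were sequenced and normalised to depth and to weakly complementary targets. A burst-and-steady-state fit provided the pre-steady-state cleavage rate.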
With UAGUGUGUCAGCCUUCUCUGAGAGAUUAACA, the “pre-steady-state target cleavage rate” value came out at 0.0557 ± 0.0088.

As to UAGUGACACACGUUCUCUGAGAGAUUAAGA, the “pre-steady-state target cleavage rate” value amounted to 0.0407 ± 0.0073.

In the case of UAGUGACAGUCCUUCUCUGAGAGAUUACA, the “pre-steady-state target cleavage rate” value came out at 0.00372 ± 0.0026.

UAGUGACAGACCUUAUCUGAGAGAUUAACA: the “pre-steady-state target cleavage rate” value worked out at 0.0894 ± 0.017.

As to UAGUGACACACCUUCUGUCAGAGAUUAACA, the “pre-steady-state target cleavage rate” value is 0.0317 ± 0.0084.

On to UAGUGACAGUCCUACUCUCAGAGAUUAACA, for which the “pre-steady-state target cleavage rate” value is 0.0051 ± 0.0015.

Consider UAGUGACUCACCUACUCUGAGAGUUUAACA, for which the “pre-steady-state target cleavage rate” value came to 0.0635 ± 0.013.

With UAGUGACACAGCUUCUCUGACAGAUUAACA, the “pre-steady-state target cleavage rate” value was 0.00821 ± 0.0032.

Regarding UAGUCUGUCAGGUUCUCUGAGAGAUUAAGA, the “pre-steady-state target cleavage rate” value came to 0.00753 ± 0.0037.

Regarding UAGUGACUCACCAUCUCUGAGAGAAUAACA, the “pre-steady-state target cleavage rate” value worked out at 0.0138 ± 0.0056.

With UAGUGACAGUGGUUCUCUGAGAGGUUAACA, the “pre-steady-state target cleavage rate” value amounted to 0.00596 ± 0.0021.

UAGUGACAGACCUUCAGUGAGAGAUUAUGA: the “pre-steady-state target cleavage rate” value was 0.00709 ± 0.0042.

As to UAGUGUGUCACCUAUCUCUGAGAGAUUAACA, the “pre-steady-state target cleavage rate” value came out at 0.136 ± 0.0078.

For UAGUGACUCACCAAGUCUGAGAGAUUAAGA, the “pre-steady-state target cleavage rate” value worked out at 0.00481 ± 0.0037.

UAGUGACUCACCUUCUGUGAGAGAUUAUGA: the “pre-steady-state target cleavage rate” value came to 0.0186 ± 0.0066.

Consider UAGUCUGUCACGAACUCUGAGAGAUUAAGA, for which the “pre-steady-state target cleavage rate” value was found to be 0.00281 ± 0.0023.

Regarding UAGUGACAGAACUUCUCUGAGAGAUUAACA, the “pre-steady-state target cleavage rate” value was 0.0413 ± 0.011.

UAGUCUCUCUCCUUCUCUGAGAGAUUAACA: the “pre-steady-state target cleavage rate” value came to 0.0433 ± 0.011.

UAGUCUGUCACCUUCUCGGAGAGAUUAACA: the “pre-steady-state target cleavage rate” value stood at 0.155 ± 0.011.

For the sequence UAGUGACUCGCCUUCUCUGAGAGAUUAACA, the “pre-steady-state target cleavage rate” value came out at 0.134 ± 0.015.

As for UAGUGAGUCACCUUCACUGAGAGUUUAACA, the “pre-steady-state target cleavage rate” value worked out at 0.0254 ± 0.012.

On to UAGUGUGUCACCUUCUACUGAGAGAUUAACA, for which the “pre-steady-state target cleavage rate” value was found to be 0.13 ± 0.041.

As for UAGUGACAGUGGAUCUCUGAGAUGAUUAACA, the “pre-steady-state target cleavage rate” value was less than 0.0001.

For the sequence UAGUGUGUCACCUUCUCUCAGAGUUUAACA, the “pre-steady-state target cleavage rate” value was determined as 0.0494 ± 0.014.

As for UAGUGAGACACCAUCUCUGAGAGAUUAACA, the “pre-steady-state target cleavage rate” value was determined as 0.133 ± 0.0098.

Turning to UAGUGACAGACCAUCUCUGUGAGAUUAACA, the “pre-steady-state target cleavage rate” value was 0.0118 ± 0.0026.

For UAGUGUGACACCUUCUCUGAGAGAUUAUGA, the “pre-steady-state target cleavage rate” value was 0.00914 ± 0.0063.

UAGUCUGUCACCUUCUCUGAGAAUUAACA: the “pre-steady-state target cleavage rate” value came out at 0.0747 ± 0.031.

UAGUGAGUCACCUUCUCAGAGAGAUUAUCA: the “pre-steady-state target cleavage rate” value was found to be 0.0747 ± 0.021.

Regarding UAGUGAGUCACCUUACUCUGAGAGAUUAACA, the “pre-steady-state target cleavage rate” value is 0.195 ± 0.017.

In the case of UAGUGACAGACCUUCGCUGAGAGAUUAACA, the “pre-steady-state target cleavage rate” value was found to be 0.0735 ± 0.012.

For the sequence UAGUGACUCACCUUCUCUGAGAGGAUUAACA, the “pre-steady-state target cleavage rate” value came out at 0.112 ± 0.013.

As to UAGUGACACCCCUUCUCUGAGAGAUUAACA, the “pre-steady-state target cleavage rate” value was found to be 0.143 ± 0.013.

As to UAGUCUGUCACCUUCUCUGAGAGAUAACA, the “pre-steady-state target cleavage rate” value came to 0.0928 ± 0.025.

As for UAGUGACAGACCUUCUCUGAGAGAUUAUACA, the “pre-steady-state target cleavage rate” value is 0.0804 ± 0.016.

As to UAGUGACACACCUUCUGUGAGAGAAUAACA, the “pre-steady-state target cleavage rate” value is 0.0317 ± 0.0097.

UAGUGACUCACCUUCUCUCAGAGAUUAUCA: the “pre-steady-state target cleavage rate” value was 0.0166 ± 0.0046.

As for UAGUGACAGUGCUUCUCUGUGAGUUUAACA, the “pre-steady-state target cleavage rate” value was determined as 0.0057 ± 0.0017.

For the sequence UAGUCAGUCACCUUCUCUGAGACAUUAACA, the “pre-steady-state target cleavage rate” value is 0.0875 ± 0.014.

UAGUCUGUCACCAUCUCUGAGAGAUAAACA: the “pre-steady-state target cleavage rate” value worked out at 0.0989 ± 0.017.

Consider UAGUGACUCACCUUCUCUGAGAGGUUAACA, for which the “pre-steady-state target cleavage rate” value was determined as 0.121 ± 0.017.

UAGUGACACACCUUCGCUGAGAGAUUAACA: the “pre-steady-state target cleavage rate” value was determined as 0.0798 ± 0.0094.

With UAGUCUGAGACCUUCUCUGAGAGAUUAUGA, the “pre-steady-state target cleavage rate” value came out at 0.0117 ± 0.0042.

UAGUGUGUCUGGUUCUCUGAGAGAUUAACA: the “pre-steady-state target cleavage rate” value was 0.0195 ± 0.0066.

Regarding UAGUGAGUCACCUACUCUGAGAGAAUAACA, the “pre-steady-state target cleavage rate” value was 0.0736 ± 0.024.

Turning to UAGUGACAGACCUUCUCAGAGAGAUUUACA, the “pre-steady-state target cleavage rate” value was 0.0215 ± 0.012.

Regarding UAGUCUGUCACCUUGUCUGUGAGAUUAACA, the “pre-steady-state target cleavage rate” value came out at 0.0334 ± 0.004.

On to UAGUGUGGUCACCUUCUCUGAGAGAUUAACA, for which the “pre-steady-state target cleavage rate” value is 0.226 ± 0.015.

Regarding UAGUCUGACACCUUCUCUGAGAGAUUAUGA, the “pre-steady-state target cleavage rate” value is 0.0246 ± 0.0053.

For UAGUCUGUCAACUUCUCUGAGAGAUUAACA, the “pre-steady-state target cleavage rate” value came out at 0.162 ± 0.011.

Consider UAGUGAGUCACCUUCACUGAGUGAUUAACA, for which the “pre-steady-state target cleavage rate” value is 0.00784 ± 0.0031.

With UAGUGACACACCUUCUCUGUCAGAUUAACA, the “pre-steady-state target cleavage rate” value was found to be 0.00727 ± 0.0032.

On to UAGUGACAGUGCUACUCUGACAGAUUAACA, for which the “pre-steady-state target cleavage rate” value is less than 0.0001.

In the case of UAGUGUGUCUCCUUGUCUGAGAGAUUAACA, the “pre-steady-state target cleavage rate” value was 0.0441 ± 0.011.

Regarding UAGUGUGUCAGGAUCUCUGAGAGAUUAAGA, the “pre-steady-state target cleavage rate” value came to 0.0118 ± 0.0031.

In the case of UAGUGUGUCACGUUCACUGAGAGAUUAACA, the “pre-steady-state target cleavage rate” value was found to be 0.15 ± 0.013.

Turning to UAGUGACAGACCUUCUCUAAGAGAUUAACA, the “pre-steady-state target cleavage rate” value amounted to 0.0861 ± 0.01.

With UAGUGACACAGGUUCUCUGAGAGAUUAACA, the “pre-steady-state target cleavage rate” value came to 0.0267 ± 0.0054.

As to UAGUGACACACACUUCUCUGAGAGAUUAACA, the “pre-steady-state target cleavage rate” value was 0.0398 ± 0.011.

As to UAGUGACUGACCUUCUGUGAGAGAUUAACA, the “pre-steady-state target cleavage rate” value worked out at 0.11 ± 0.011.

For UAGUGUGUCACGUUCUCUCAGAGAUUAACA, the “pre-steady-state target cleavage rate” value amounted to 0.0411 ± 0.0058.

As to UAGUGAGUCACCUUCUCUGACUGAUUAACA, the “pre-steady-state target cleavage rate” value is 0.00608 ± 0.0039.

In the case of UAGUGACAGUCCUUCUCGGAGAGAUUAACA, the “pre-steady-state target cleavage rate” value was found to be 0.0241 ± 0.0054.

As for UAGUGACAGACCUUCUCUGUGAGAUAAACA, the “pre-steady-state target cleavage rate” value amounted to 0.0102 ± 0.0046.

With UAGUGACAGACUUUCUCUGAGAGAUUAACA, the “pre-steady-state target cleavage rate” value was found to be 0.0879 ± 0.0072.

In the case of UAGUGACAGUGCUUCUCUGAGAGAUUAAGCA, the “pre-steady-state target cleavage rate” value came to 0.00719 ± 0.003.

Regarding UAGUGACUCACCUUCUCUGAGACUAAUUGA, the “pre-steady-state target cleavage rate” value is less than 0.0001.

In the case of “UAGUGACAGUGGAUCUCUGAGAGAUUAACA [g2:g17:cont:t1A]”, the “pre-steady-state target cleavage rate” value is 0.00287 ± 0.0017.

Consider UAGUGAGUCUCCUUCUCUGAGAGAUUAUGA, for which the “pre-steady-state target cleavage rate” value worked out at 0.00809 ± 0.0046.

Regarding UAGUCUGUCAGCUUCUCUGAGACAUUAACA, the “pre-steady-state target cleavage rate” value was determined as 0.0133 ± 0.0023.

As for UAGUGACAGACCUUCUCUGAGAGAUUACACA, the “pre-steady-state target cleavage rate” value is 0.0919 ± 0.02.

Consider “UAGUCUGUCACCUUCUCUGAGAGAUUAACU [g2:g26:cont:t1U]”, for which the “pre-steady-state target cleavage rate” value turned out to be 0.244 ± 0.026.

For the origin of these results see the supplement of paper PMC10338343.
